The supplement of paper PMC6746778
The list shows a part of the results. Many values rest on one well or one pass, so single values are uncertain.

How the values were obtained:
Experiment in all cases: proliferation Z-score within cell line (SRB, relative to all inhibitors screened on that line); triple-negative breast cancer lines and a kinase inhibitor library; SRB is the sulforhodamine B protein stain; higher = less growth inhibition (more resistant)
Settings in all cases: concentration: 1 µM; 4 days
Bt20 = system: Bt20
Bt549 = system: Bt549
HCC1143 = system: HCC1143
HCC1806 = system: HCC1806
HCC1937 = system: HCC1937
HCC38 = system: HCC38
HCC70 = system: HCC70
Hs578T = system: Hs578T
MDA-MB-231 = system: MDA-MB-231
MDA-MB-435s = system: MDA-MB-435s
MDA-MB-436 = system: MDA-MB-436
MDA-MB-453 = system: MDA-MB-453
MDA-MB-468 = system: MDA-MB-468
SKBR7 = system: SKBR7
SUM1315MO2 = system: SUM1315MO2
SUM149PT = system: SUM149PT
SUM159PT = system: SUM159PT
SUM185PE = system: SUM185PE
SUM229PE = system: SUM229PE
SUM52PE = system: SUM52PE
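Note: Single-dose primary screen of a 378-member kinase inhibitor library in 96-well plates, with growth read as absorbance of protein-bound SRB dye after TCA fixation.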

Row | SMILES | proliferation Z-score within cell line (Bt20) | proliferation Z-score within cell line (Bt549) | proliferation Z-score within cell line (HCC1143) | proliferation Z-score within cell line (HCC1806) | proliferation Z-score within cell line (HCC1937) | proliferation Z-score within cell line (HCC38) | proliferation Z-score within cell line (HCC70) | proliferation Z-score within cell line (Hs578T) | proliferation Z-score within cell line (MDA-MB-231) | proliferation Z-score within cell line (MDA-MB-435s) | proliferation Z-score within cell line (MDA-MB-436) | proliferation Z-score within cell line (MDA-MB-453) | proliferation Z-score within cell line (MDA-MB-468) | proliferation Z-score within cell line (SKBR7) | proliferation Z-score within cell line (SUM1315MO2) | proliferation Z-score within cell line (SUM149PT) | proliferation Z-score within cell line (SUM159PT) | proliferation Z-score within cell line (SUM185PE) | proliferation Z-score within cell line (SUM229PE) | proliferation Z-score within cell line (SUM52PE)
1 | Cc1[nH]c2ccccc2c1C1=C(NCCc2ccc(F)cc2)C(=O)N(C)C1=O | 0.541 | 0.413 | 0.457 | 0.692 | 0.359 | 0.278 | 0.47 | 0.372 | 0.56 | 0.674 | 0.501 | 0.668 | 0.649 | 1.02 | 0.469 | 0.789 | 0.422 | 0.859 | 0.436 | 0.626
2 | Cc1cc(Nc2cc(CN3CCOCC3)c3nc(C)c(Cc4ccc(Cl)cc4F)n3n2)n[nH]1 | 0.675 | 0.571 | -0.776 | 0.533 | 0.532 | 0.457 | -1.17 | 0.236 | -0.326 | -0.45 | -0.935 | -0.275 | -1.27 | -0.189 | -0.764 | 0.692 | -1.34 | -0.553 | 0.0857 | -1.39
3 | N#Cc1c(Oc2ccc(F)c(NC(=O)Cc3cccc(C(F)(F)F)c3)c2)ccc2nc(NC(=O)C3CC3)sc12 | 0.626 | 0.584 | 0.65 | 0.969 | 0.146 | 0.469 | 0.488 | 0.337 | -1.54 | -2.18 | -0.29 | 0.504 | -0.397 | 0.274 | -0.178 | -0.296 | 0.277 | -0.835 | -0.785 | -1.31
4 | C=CC(=O)Nc1ccc2ncnc(Nc3ccc(OCc4cccc(F)c4)c(Cl)c3)c2c1 | -0.23 | 0.185 | -0.509 | -1.73 | -0.167 | 0.411 | -1.06 | 0.305 | 0.194 | 0.478 | -1.19 | -1.49 | -0.934 | 0.469 | 0.0497 | -0.633 | -1.69 | -0.0379 | -0.417 | 0.267
5 | FC(F)c1nc2ccccc2n1-c1nc(N2CCOCC2)nc(N2CCOCC2)n1 | -0.954 | 0.709 | 0.744 | 0.663 | 0.792 | 0.57 | 0.903 | 0.683 | -0.628 | -0.875 | 1.11 | 0.911 | -1.07 | 0.959 | -1.72 | -0.027 | 0.621 | -1.68 | -0.66 | -1.31
6 | O=C1Nc2ccc(I)cc2C1=Cc1cc(Br)c(O)c(Br)c1 | 0.566 | 0.608 | 0.799 | 1.21 | 0.519 | 0.492 | 0.639 | 0.632 | -0.054 | -0.0675 | 0.55 | 0.705 | 0.09 | 0.435 | 0.0933 | 0.396 | 0.427 | 0.481 | 0.506 | 0.793
7 | CCC[C@H](NC(=O)/C(C#N)=C/c1cccc(Br)n1)c1ccccc1 [Degrasyn (WP1130)] | 0.747 | 0.511 | 0.596 | 0.698 | 0.488 | 0.522 | 0.484 | 0.631 | 0.422 | 0.637 | 0.647 | 0.658 | 0.605 | 0.875 | 0.605 | 0.617 | 0.461 | 0.634 | 0.873 | 0.87
8 | Cc1[nH]c(/C=C2\C(=O)Nc3ccccc32)c(C)c1CCC(=O)O [TSU-68 (SU6668, Orantinib)] | 0.736 | 0.529 | -0.153 | 0.723 | 0.249 | 0.534 | -0.41 | 0.438 | 0.752 | 0.698 | -1.04 | 0.722 | 0.854 | 0.538 | 0.984 | 0.789 | -1.15 | 0.927 | 0.72 | 1.14
9 | COc1cc(N2CCC(N(C)C)CC2)ccc1Nc1ncc(Cl)c(Nc2ccccc2P(C)(C)=O)n1 | -0.179 | -1.78 | -2.91 | -2.47 | -2.66 | -3.44 | -2.74 | -2.36 | -2.23 | -1.71 | -2.52 | -1.53 | -1.21 | -1.65 | -1.9 | -2.57 | -2.71 | -1.91 | -2.49 | -1.84
10 | COc1ccc(CNC(=O)Nc2ncc([N+](=O)[O-])s2)cc1 | -0.419 | -1.4 | -0.443 | -1.3 | -1.15 | -2.04 | -1.16 | -1.45 | 0.556 | 0.0803 | 0.00877 | -1.67 | -0.263 | -1.34 | 0.32 | 0.528 | 0.443 | 0.501 | 0.506 | 0.554
11 | COc1ccc(S(=O)(=O)N(CCO)c2ccccc2CN(C)C/C=C/c2ccc(Cl)cc2)cc1 [KN-93 Phosphate] | -0.663 | -0.983 | -0.437 | -1.39 | -0.913 | -2 | -0.876 | -1.08 | 0.539 | 0.348 | -0.719 | -1.71 | -0.574 | -0.846 | -0.116 | 0.122 | 0.399 | 0.0465 | 0.0765 | 0.56
12 | COc1cccc(-c2cc(=O)c3ccccc3o2)c1N | 0.771 | 0.725 | 0.601 | 0.749 | -0.0542 | 0.538 | 0.257 | 0.797 | 0.906 | 0.553 | -0.271 | 0.638 | 0.603 | 1.2 | 1.06 | 0.788 | 0.47 | 0.974 | 0.587 | 1.03
13 | Nc1nc(Nc2ccc(S(N)(=O)=O)cc2)nn1C(=O)c1c(F)cccc1F | 0.533 | -0.667 | 0.711 | 0.358 | 0.433 | -0.218 | 0.586 | 0.0172 | -1.01 | -0.122 | 0.614 | -0.574 | -1.16 | -0.609 | 0.667 | 0.111 | 0.654 | 0.178 | 0.465 | 0.133
14 | Cc1cc(C(=O)NOCCO)c(Nc2ccc(I)cc2F)n(C)c1=O | -0.333 | -0.319 | -2.07 | -1.47 | -0.224 | -0.866 | -0.379 | -1.07 | -1.76 | -1.62 | -0.173 | -1.28 | -1.11 | -0.206 | -0.264 | -2.14 | -1.16 | -1.08 | -2.1 | -1.25
15 | C=CC(=O)Nc1cccc(Sc2nc(Nc3ccc(N4CCN(C)CC4)cc3)ncc2Cl)c1 | -0.563 | 0.359 | 0.428 | -0.143 | 0.39 | 0.166 | 0.464 | 0.665 | 0.361 | 0.393 | 0.145 | 0.394 | -1.02 | 0.631 | 0.15 | -0.581 | 0.0829 | 0.416 | -0.459 | -0.334
16 | CNC(=O)c1ccc(C)c(-n2c(C)cc(OCc3ccc(F)cc3F)c(Br)c2=O)c1 | 0.76 | 0.656 | 0.704 | 1.07 | 0.832 | 0.711 | 0.86 | 0.696 | 0.811 | 1.05 | 0.929 | 1.19 | 0.898 | 0.771 | 0.833 | 1.1 | 0.76 | 0.868 | 1.41 | 0.751
17 | Cc1cc(CS(=O)(=O)c2ccccc2)cc(OCc2ccc(CN3CCC[C@@H]3CO)cc2)c1 | 0.357 | 0.585 | 0.791 | 0.694 | 0.3 | 0.445 | 0.495 | 0.422 | 0.607 | 0.707 | 0.348 | 0.621 | 0.721 | 0.252 | 0.678 | 0.706 | 0.469 | 0.191 | 0.449 | 0.551
18 | CN(C)C/C=C/C(=O)Nc1cc2c(Nc3ccc(F)c(Cl)c3)ncnc2cc1O[C@H]1CCOC1 [Afatinib (BIBW2992)] | 0.0496 | 0.396 | -1.23 | -2.02 | -1.31 | 0.268 | 0.329 | 0.387 | 0.5 | 0.347 | 0.053 | -1.39 | -1.65 | 1 | 0.833 | -0.643 | 0.213 | 1.2 | -0.0253 | 0.728
19 | Cc1nc(Nc2ncc(C(=O)Nc3c(C)cccc3Cl)s2)cc(N2CCN(CCO)CC2)n1 [Dasatinib] | -0.368 | -1.67 | -0.834 | -2.57 | -0.617 | -3.28 | 0.452 | -2.65 | -2.29 | 0.315 | 0.0152 | 0.552 | 0.473 | -1.44 | -1.76 | -2.14 | 0.103 | 1.17 | -1.85 | 0.327
20 | CO[C@H]1C[C@@H]2CC[C@@H](C)[C@@](O)(O2)C(=O)C(=O)N2CCCC[C@H]2C(=O)O[C@H]([C@H](C)C[C@@H]2CC[C@@H](OC(=O)C(C)(CO)CO)[C@H](OC)C2)CC(=O)[C@H](C)/C=C(\C)[C@@H](O)[C@@H](OC)C(=O)[C@H](C)C[C@H](C)/C=C/C=C/C=C/1C | -1.32 | -2.08 | -0.545 | -0.014 | -1.39 | -0.861 | -1.4 | -2.51 | -0.664 | -0.678 | -1.3 | -1.77 | -0.575 | -1.03 | -0.936 | -0.504 | -0.19 | -1.08 | -1.09 | -0.96
21 | CNC(=O)c1c(F)cccc1Nc1nc(Nc2cc3c(cc2OC)CCN3C(=O)CN(C)C)nc2[nH]ccc12 | 0.969 | 0.848 | 0.622 | 0.756 | 0.725 | 0.674 | 0.718 | 0.762 | 0.681 | 0.275 | 0.314 | 0.844 | 1.11 | 0.202 | 0.816 | 0.371 | 0.554 | 0.557 | -0.557 | 0.74
22 | CCS(=O)(=O)Nc1ccc2[nH]c(O)c(C(=Nc3ccc(CN4CCCCC4)cc3)c3ccccc3)c2c1 [Hesperadin] | -0.249 | -0.734 | -0.238 | -1.8 | -1.36 | -0.79 | -2.07 | -0.912 | -1.9 | -1.75 | -0.782 | -0.505 | -1.21 | -1.41 | -1.44 | -1.4 | -1.2 | -1.48 | -1.06 | -1.42
23 | CC(C)n1nc(-c2ccc3oc(N)nc3c2)c2c(N)ncnc21 | -1.66 | -2.09 | -2 | -1.57 | -1.96 | -2.25 | -1.92 | -2.11 | -1.48 | -1.58 | -1.79 | -1.54 | -1.42 | -1.82 | -1.49 | -1.47 | -1.96 | -1.45 | -1.78 | -1.2
